# Assay results published in PubChem BioAssay AID686971 (National Center for Advancing Translational Sciences (NCATS), 2013).
# The whole screen tested about 360,000 compounds, of which about 7,500 (2.1%) were called active. This list was built around the results that the source calls inconclusive (neither active nor inactive); the mix of calls is not that of the screen. The call rests on the fitted dose curve; in most records, active means well fitted cell-killing curve with a large enough effect; inconclusive means small, poorly fitted or top-dose-only effect, or effect the other way, or another doubt; inactive means no such curve, though single readings can be large or run the other way. No potency is given beside an inconclusive call; the fits are too rough.
# Assay: qHTS for induction of synthetic lethality in tumor cells producing 2HG: qHTS for the HT-1080-IDH1KD cell line;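 on activity, negative = toxicity: 0% = DMSO wells and -100% = cell-free medium wells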
# Conditions: HT-1080 IDH1 knockdown viability, ATP luminescence, 48 h; activity, negative = toxicity: at 46.1 µM (top of the series) unless noted
# Procedure, shortened: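 After a 2 h attachment period, IDH1KD HT-1080 cells took pin-transferred compound for 48 h at 37 °C; ATP-based luminescence after 10 min room-temperature reagent incubation reported viability.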
# Potency means the concentration at half of the fitted maximal effect; tags describe the fitted curve by direction and shape.
SMILES,"activity, negative = toxicity",Potency
OCCN=C1CCCc2c1[nH]c1ccc(Cl)cc21,inactive: -8.53%,
COc1ccc(-c2noc3c2-c2nc(-c4ccccc4C)sc2CC3)cc1,,"inconclusive [cytotoxic, single point]"
COc1ccc(OC)c(Nc2nc(NCCO)c3ccccc3n2)c1,,"inconclusive [cytotoxic, single point]"
CCCC(CCC)C(=O)Oc1cc(C)[nH]c(=O)c1[N+](=O)[O-],,"inconclusive [rising, partial curve]"
Cc1ccc(NC(=O)C/C(N)=N/OC(=O)Nc2ccc(C)c(Cl)c2)cc1,inactive: 9.87%,
CCCOc1c(Cl)cc(/C=N/O)cc1OCC,,"inconclusive [cytotoxic, partial curve]"
CCCCC(=O)NCc1ccc(Cl)cc1,inactive: -5.2%,
Cc1nc2cc3ccccc3cc2c(=O)[nH]1,,"inconclusive [cytotoxic, single point]"
O=C(NCc1ccccc1)C1=C[C@@H](c2ccc(C(F)(F)F)cc2)C[C@@H](OCc2ccc(CO)cc2)O1,,"inconclusive [cytotoxic, single point]"
CN1CCC(NC(=O)c2cc(-c3cccc(Br)c3)nc3ccccc23)CC1,,active: 20.6 µM
OC(c1ccc(F)cc1)c1nc(-c2cncnc2)cs1 (centres undefined),inactive: 4.01%,
O=C(Nc1ccc(N2CCN(C(=O)c3ccc(Cl)cc3)CC2)cc1)c1ccc([N+](=O)[O-])o1,,active: 2.59 µM
CCc1ccc(N(CC(=O)Nc2nc3ccc(C)cc3s2)S(=O)(=O)c2c(C)noc2C)cc1,,"inconclusive [cytotoxic, single point]"
Cc1ccc(C(O)c2ncc(-c3cccc(C(F)(F)F)c3)[nH]2)cc1F (centres undefined),,"inconclusive [cytotoxic, single point]"
COCCCN(Cc1cc(OC)c(OC)c(OC)c1)C(=S)Nc1cccc(Cl)c1,inactive: -4.9%,
COc1cc2ccccc2cc1C(=O)Nc1ccc(N2CCN(C)CC2)cc1,,"inconclusive [cytotoxic, single point]"
CNC(=S)N1N=C(c2ccccc2)CC1c1ccc(Br)cc1 (centres undefined),inconclusive: 18.4%,
CC1(C)Oc2ccc(C(=O)N/N=C/c3ccc(O)cc3)cc2NC1=O,,"inconclusive [cytotoxic, single point]"
Cc1ccc(C)c(NS(=O)(=O)c2ccc3c(c2)NC(=O)CO3)c1,inactive: 1.68%,
O=C(Nc1nc(-c2ccncc2)cs1)C1COc2ccccc2O1 (centres undefined),,"inconclusive [cytotoxic, single point]"
CC(N=Cc1c(O)c2ccccc2oc1=O)C(=O)O (centres undefined),,"inconclusive [cytotoxic, single point]"
Cc1ccnc2nc(C(=O)OCC(=O)N(Cc3ccccc3)C(C)(C)C)nn12,inactive: -1.02%,
O=C1C=C(Nc2ccc(Cl)cc2)CC(c2ccc(Cl)cc2)C1 (centres undefined),inactive: -20.5%,
CC(C)(C)S(=O)(=O)/C(C#N)=N/Nc1ccc(Cl)cc1,,"inconclusive [cytotoxic, single point]"
CCOC(=O)C1CCCN(CCC(=O)Nc2ccc(F)c(F)c2)C1 (centres undefined),inactive: -9.77%,

SMILES,"activity, negative = toxicity",Potency
CCOC(=O)c1sc2nc(C)nc(SC(C)C(=O)N(C)c3ccccc3)c2c1C (centres undefined),inactive: -0.813%,
COc1ccccc1CNCc1cc(=O)oc2c(C)c(C)ccc12,,"inconclusive [cytotoxic, single point]"
COc1ccc(/C(N)=N/OC(=O)c2ccc(C)c([N+](=O)[O-])c2)cc1OC,inconclusive: 32.1%,
CC1=CCC(C(=O)N/N=C/c2cccs2)C(c2ccc(F)cc2)C1 (centres undefined),,"inconclusive [cytotoxic, single point]"
CCn1c(SCC(=O)NC2CCCCC2)nnc1-c1ccccc1F,inactive: 18.3%,
COc1ccc(NC(=O)c2cc(-c3cc(F)ccc3OC)n[nH]2)cc1OC,,"inconclusive [cytotoxic, single point]"
COc1ccc(NC(=O)Nc2ccc(O)c3ccccc23)cc1,inactive: -9.6%,
CC(C)(CO)Cc1cc(C(C)(C)C)c(O)c(C(C)(C)C)c1,,"inconclusive [cytotoxic, single point]"
O=C(/C=C/c1ccco1)Nc1ccccn1,inconclusive: -34.5% [cytotoxic],
C=C(C)COc1ccc(-c2[nH]ncc2-c2ccc(OC)c(OC)c2)c(O)c1,,active: 4.61 µM
N#C/C(=C\Nc1ccccc1O)c1nc2ccccc2o1,,"inconclusive [cytotoxic, single point]"
CN(C)CCC(=O)N1c2ccccc2Sc2ccc(Cl)cc21,,"inconclusive [cytotoxic, single point]"
CSc1ccc(/C=N/NC(=O)c2ccc(O)cc2)cc1,inactive: -16.8%,
CCOC(=O)[C@]12CCC=C1N(Cc1cccc3ccccc13)C(=O)[C@H](CC(=O)NCCC(C)C)C2,,"inconclusive [cytotoxic, single point]"
CN1C(=O)/C(=C\c2ccccc2F)Sc2ccc(C(=O)NC3CCN(Cc4ccccc4)CC3)cc21,,active: 16.4 µM
c1ccc(OCCCCn2cnc3ccccc32)cc1,,"inconclusive [cytotoxic, single point]"
COc1ccc(C(=O)NC(Nc2ccc(C)cc2)C(Cl)(Cl)Cl)cc1 (centres undefined),,"inconclusive [cytotoxic, partial curve, poor fit]"
CCCc1cc(NCc2ccccn2)n2nc(C)c(-c3ccccc3)c2n1,,"inconclusive [cytotoxic, partial curve]"
CCc1cc2cc(C(=O)N3CCN(Cc4ccccc4)CC3)sc2s1,inactive: 1.61%,
N#C/C(=N\Nc1ccc(Cl)cc1)C(=O)c1ccccc1,,"inconclusive [cytotoxic, partial curve, poor fit]"
Cc1noc(C)c1COc1ccccc1C(=O)N1CCN(S(=O)(=O)c2ccc(C(C)C)cc2)CC1,inactive: -0.17%,
S=C1NCCNC(=S)NCCOCCOCCN1,inactive: 13.9%,
Cc1ccccc1SCC(=O)OCC(=O)NCCNC(=O)COC(=O)CSc1ccccc1C,inactive: 3.71%,
CCc1ccc(C(CNC(=O)c2ccc3c(=O)n(-c4ccccc4F)c(=S)[nH]c3c2)N(C)C)cc1 (centres undefined),,active: 32.6 µM
Cc1cc(C)c2c(CC(=O)NCc3ccco3)coc2c1,,"inconclusive [cytotoxic, single point]"

SMILES,"activity, negative = toxicity",Potency
COc1ccc(NC(=O)c2ccc3nc(C)sc3c2)cc1,inactive: -1.92%,
COc1ccccc1-c1cc(NC(C)=O)c2ncc(-c3ccc(F)cc3)n2c1,inactive: -16.8%,
O=C(COc1ccccc1)NC(NC(=S)Nc1ccccc1O)C(Cl)(Cl)Cl (centres undefined),,"inconclusive [cytotoxic, single point]"
COc1ccccc1-c1cnc(C(O)c2ccc(C(C)(C)C)cc2)[nH]1 (centres undefined),,"inconclusive [cytotoxic, single point]"
CC(C)(C)OC[C@H](NC(=O)c1[nH]cnc1C(=O)Nc1ccccc1F)C(=O)OC(C)(C)C,,"inconclusive [cytotoxic, single point]"
CCOC(=O)N(C)c1c(CC)nc2c(OCc3cc(Cl)cc(Cl)c3)cccn12,,"inconclusive [cytotoxic, single point]"
CCOc1ccc(-n2c(SCC(=O)Nc3ccc(Br)cc3)nc3n[nH]c(C)c3c2=N)cc1,,active: 16.4 µM
Cc1ccc(S(=O)(=O)N2C[C@H]3n4c(=O)ccc(=O)n4C[C@H](OC(=O)NCc4ccccc4F)[C@@]3(O)C2)cc1,,"inconclusive [cytotoxic, single point]"
COc1ccc(C(=O)NCc2ccccc2)cc1S(=O)(=O)N1CCCc2ccccc21,inactive: -18.8%,
CCn1ccnc1CN1CCc2c([nH]c3ccccc23)C1C1CCCCC1 (centres undefined),inactive: 2.42%,
CCCn1nnc(NC(=S)NC(=O)Cc2ccccc2)n1,,"inconclusive [cytotoxic, partial curve]"
Cn1c(NCCN2CCCC2)nc2cc(-c3cccc(C(F)(F)F)c3)sc2c1=O,,"inconclusive [cytotoxic, single point]"
Cc1cc2cc(CN(CC3CCCO3)C(=O)c3cnccn3)c(=O)[nH]c2cc1C (centres undefined),inconclusive: -33.1% [cytotoxic],
CCCCn1c(N)c(N(CCC(C)C)C(=O)c2ccc(-c3ccc([N+](=O)[O-])cc3)o2)c(=O)[nH]c1=O,inactive: 4.51%,
CCOc1c(Cl)cc(C(=O)NCCN2CCCCC2)cc1Cl,,"inconclusive [cytotoxic, single point]"
O=C(N/N=C/c1ccc(Sc2nc3ccccc3[nH]2)o1)c1ccncc1,inactive: -2.34%,
Cc1ccc(NC(=O)C2=C(c3ccccc3)S(=O)(=O)CCS2(=O)=O)cc1,,active: 7.31 µM
C=CCNC(=S)Nc1sc2c(c1C(=O)OCC)CCN(C(=O)OCC)C2,inactive: 0.234%,
Cc1cc(N2CCCC2)nc2ccc(NC(=S)NCCCN3CCC(C)CC3)cc12,,active: 23.1 µM
Cc1c(NC(=O)CCC2CCCCC2)c(=O)n(-c2ccccc2)n1C,,"inconclusive [rising, single point]"
COc1cc(-c2cnc3c(NC(C)=O)cc(-c4ccc(N5CCN(C)CC5)cc4)cn23)cc(OC)c1OC,,"inconclusive [cytotoxic, single point]"
O=C(C[C@H]1C[C@H](C(=O)N2CCCCC2)[C@@]2(CCc3ccccc3)c3[nH]c4cc(-c5ccco5)ccc4c3CCN2C1=O)NCCN1CCOCC1,,"inconclusive [cytotoxic, partial curve]"
Cc1cc(O)c(C(C)C)cc1N=Cc1ccc([N+](=O)[O-])cc1,inactive: -0.18%,
Cc1nn(Cc2ccccc2)c(C)c1NC(=O)CCCn1nc([N+](=O)[O-])c(Cl)c1C,inactive: -2.95%,
